# The whole screen tested about 310,000 compounds, of which about 18,000 (5.8%) were called active. Inconclusive means that the source gave no clear call. Such entries were picked first, then a sample of the others. Calls follow the shape of the dose curve; as a rule, active = well fitted inhibition curve with a large enough effect; inconclusive = small, poorly fitted or top-dose-only effect, or another doubt; inactive = no such curve, though single readings can be large or run the other way. No potency is given beside an inconclusive call; the fits are too rough.
# Assay: Primary qHTS for delayed death inhibitors of the malarial parasite plastid, 48 hour incubation
# Settings: P. falciparum luciferase growth in erythrocytes; series mostly up to 28.7 µM
# Outline: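 Erythrocytes infected with P. falciparum carrying an integrated firefly luciferase reporter (2% hematocrit, 0.1% parasitemia final) were exposed to compounds in RPMI 1640 with 0.5% Albumax at 37 C, 5% CO2. Growth inhibition was scored as reduced luminescence.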
# Potency is read from the fitted curve at half-maximal effect; tags tell the direction and shape of the fitted curve.
row,Structure (SMILES),Potency
1,NC(=O)CSc1nnc(Cc2ccc3c(c2)OCO3)n1C1CCCCC1,"inconclusive [inhibitor, partial curve, poor fit]"
2,NS(=O)(=O)c1ccc(NC(=S)N2CCN(S(=O)(=O)c3ccc(F)cc3)CC2)cc1,"inconclusive [inhibitor, single point]"
3,Cc1cc(OCCCCn2ccnc2)cc(C)c1Cl,"inconclusive [inhibitor, single point]"
4,CN1C(=O)C(=Cc2ccccc2Oc2ccc(Cl)cc2)C(=O)N(C)C1=O,inactive
5,O=c1c2ccccc2sc2nc(C3CCCCC3)n(Cc3ccco3)c(=O)c12,active: 1.65 µM
6,CCOC(=O)C1=C(C)C/C(=N\NC(=O)c2ccccc2O)CC1,"inconclusive [inhibitor, single point]"
7,CC(=O)Nc1ccc(NC(=O)C2CCN(S(=O)(=O)c3ccc4c(c3)OCCO4)CC2)cc1,"inconclusive [inhibitor, single point]"
8,CCCCOC(=O)c1sc2nc(C)cc(C)c2c1N,inactive
9,CN(C)c1ccc(C=C2C(=O)NC(=S)NC2=O)cc1[N+](=O)[O-],inactive
10,CC(=O)Nc1ccc(Nc2nnc(-c3ccc(C)c(S(N)(=O)=O)c3)c3ccccc23)cc1,"inconclusive [inhibitor, single point]"
11,O=C(Nc1cccc(Cl)c1N1CCOCC1)c1cc([N+](=O)[O-])ccc1N1CCOCC1,"inconclusive [inhibitor, single point]"
12,COc1cc(/C=N/NC(=O)c2sc3nc(C)cc(C)c3c2N)ccc1O,"inconclusive [inhibitor, partial curve]"
13,CS(=O)(=O)c1ccc(Cl)c(NC(=O)CSc2nnc(-c3cccs3)n2N)c1,"inconclusive [inhibitor, single point]"
14,CC(C)CN(C(=O)CCC1CCCCC1)c1c(N)n(CC(C)C)c(=O)[nH]c1=O,inactive
15,O=C(CSc1nc(-c2ccc(F)cc2)nc2c1Cc1ccccc1O2)Nc1ccc(C(=O)O)cc1,"inconclusive [inhibitor, single point]"
16,CC(=O)Nc1ccc(NS(=O)(=O)c2cc([N+](=O)[O-])ccc2C)cc1,inactive
17,O=C(Nc1ccc(C(=O)N2CCC(O)(c3ccc(Cl)c(C(F)(F)F)c3)CC2)cc1)c1ccc(Br)o1,"inconclusive [inhibitor, single point]"
18,O=C(Nc1ccc(Cl)cc1Cl)C1CCC(=O)N1Cc1ccccc1Cl (centres undefined),"inconclusive [inhibitor, partial curve, poor fit]"
19,CC[n+]1c(/C=C/Nc2ccccc2)sc2ccccc21,"inconclusive [inhibitor, partial curve, poor fit]"
20,O=C(O)CC(NC(=O)C(c1ccccc1)c1ccccc1)c1cccc([N+](=O)[O-])c1 (centres undefined),"inconclusive [inhibitor, single point]"
21,COc1ccc(CC(=O)Nc2ccccc2C(C)=O)cc1S(=O)(=O)N1CCOCC1,"inconclusive [inhibitor, single point]"
22,CCOC(=O)c1cc(CC)sc1NC(=O)c1ccc(N2C(=O)CCC2=O)cc1,"inconclusive [inhibitor, single point]"
23,Cc1cc(N2CCN(C)CC2)nc2ccc(NC(=O)c3ccc(Br)o3)cc12,active: 1.65 µM

row,Structure (SMILES),Potency
1,O=C(O)c1ccc2c(c1)C(=O)N([C@H](Cc1ccc(F)cc1)C(=O)O)C2=O,"inconclusive [inhibitor, single point]"
2,COc1ccccc1C(=O)Nc1ccnn1C1CCN(Cc2cc(C)c(C)cc2C)CC1,"inconclusive [inhibitor, partial curve]"
3,CC(=O)c1cccc(NC(=O)COc2ccc(S(=O)(=O)N3CCOCC3)cc2)c1,"inconclusive [inhibitor, partial curve, poor fit]"
4,COCCCNC(=O)/C=C1\Sc2ccccc2N(Cc2ccccc2F)C1=O,inactive
5,CCOC(=O)c1c(NC(=O)CSc2nnc(C)s2)sc2c1CCN(C)C2,active: 6.57 µM
6,CCOC(=O)c1nn(-c2ccccc2)c(=O)c2c(N)scc12,inactive
7,CCc1cccc(C)c1NC(=S)NCc1ccc2[nH]c(C)cc2c1,active: 13.1 µM
8,CC1CN(S(=O)(=O)c2cc(C(=O)NCCC3=CCCCC3)ccc2Cl)CC(C)O1 (centres undefined),active: 10.4 µM
9,O=C1c2ccccc2C(=O)c2c1oc(C(F)(F)F)c2C(=O)c1ccccc1,"inconclusive [inhibitor, partial curve]"
10,C=CCN1C(=O)C(C)NC1=S (centres undefined),inactive
11,COc1ccccc1NC(=O)C1=C(C)NC(=O)NC1c1ccccc1[N+](=O)[O-] (centres undefined),"inconclusive [inhibitor, single point]"
12,O=C(NCCN1CCN(C(=O)c2cccc(Br)c2)CC1)C(=O)NCc1ccccc1,"inconclusive [inhibitor, single point]"
13,CC1CC(=O)NN1C(=O)c1ccccc1 (centres undefined),inactive
14,CC(C)N(CC(O)c1cccc([N+](=O)[O-])c1)C(C)C (centres undefined),"inconclusive [inhibitor, full curve, poor fit]"
15,O=C(COC(=O)COc1ccc(Cl)cc1)NC1CCCCC1,inactive
16,O=C(NC1CC1)C1CCN(S(=O)(=O)c2cc([N+](=O)[O-])ccc2Cl)CC1,"inconclusive [inhibitor, single point]"
17,O=C(CN(Cc1ccco1)Cc1ccco1)Nc1cc(S(=O)(=O)N2CCCCC2)ccc1Cl,active: 13.1 µM
18,COc1ccc(Cn2nnnc2C(c2cccs2)N2CCCCCC2)cc1 (centres undefined),"inconclusive [inhibitor, single point]"
19,Cn1nnc(NC(=S)NC(=O)c2ccc(-c3ccc(Br)cc3)o2)n1,inactive
20,O=C(Nc1ccc2nc(-c3cccnc3)[nH]c2c1)c1ccccc1F,"inconclusive [inhibitor, partial curve, poor fit]"
21,COc1ccc(C(CCNCc2ccc(N(C)C)cc2)c2ccccc2)cc1 (centres undefined),active: 14.7 µM
22,Cc1ccc(NC(=O)CN(C)C(=O)c2cccc(-n3cccc3)c2)cc1,inactive
23,COc1ccc(NC(=O)C(CC(C)C)NC(=O)C2CCC(C)CC2)c(OC)c1 (centres undefined),"inconclusive [inhibitor, single point]"

row,Structure (SMILES),Potency
1,COc1ccc(-c2csc3ncnc(N4CCN(S(=O)(=O)c5ccc(C)c(C)c5)CC4)c23)cc1,"inconclusive [inhibitor, full curve]"
2,CCCC/C(O)=C1\C(=O)CC(C)(C)CC1=Nc1ccccc1OC,"inconclusive [inhibitor, single point]"
3,CCOc1ccccc1OCCOc1ccc(F)cc1,inactive
4,CC1(C)CC(CCNC(=O)CCl)(c2ccccc2)CCO1 (centres undefined),"inconclusive [inhibitor, partial curve]"
5,CC(C)N(C(=O)CSc1nc2ccccc2n1Cc1ccc(F)cc1)C(C)C,active: 4.65 µM
6,COc1cc(OC)c(OC)cc1/C=N/NC(=O)c1cc(-c2cccn2C)n[nH]1,"inconclusive [inhibitor, partial curve, poor fit]"
7,COc1ccc(Nc2ncnc3ccccc23)c(OC)c1,inactive
8,CSCCC(=O)N(C)CC1CCN(CCc2cccc(C(F)(F)F)c2)CC1,inactive
9,COc1cccc(-c2ccc(NC(=O)C3CCCN(Cc4cnn(C)c4C)C3)cc2)c1 (centres undefined),inactive
10,COc1ccc(N(CC(=O)N2CCN(c3ccccc3F)CC2)S(=O)(=O)c2c(C)n[nH]c2C)cc1,"inconclusive [inhibitor, full curve, poor fit]"
11,CCOC(=O)C1CCCN(C(=O)CCCOc2cc(=O)n(C)c3ccccc23)C1 (centres undefined),"inconclusive [inhibitor, partial curve, poor fit]"
12,COc1ccccc1NS(=O)(=O)c1cccc(NC(=O)Nc2ccc(Cl)cc2)c1,"inconclusive [inhibitor, single point]"
13,COc1ccccc1CCC(=O)NNC(=O)c1ccncc1,"inconclusive [inhibitor, partial curve, poor fit]"
14,Cc1cccc(Cn2c(=O)c3c(nc4n3CCN4Cc3ccco3)n(C)c2=O)c1,active: 9.28 µM
15,CN(CCOc1ccc(Cl)cc1)C(=O)CNS(=O)(=O)c1ccc(N(C)C)c([N+](=O)[O-])c1,"inconclusive [inhibitor, partial curve]"
16,CCOc1ccc(CN(C)C(=O)c2ccc(NC(=O)CC3SC(N4CCCC4)=NC3=O)cc2)cc1 (centres undefined),"inconclusive [inhibitor, partial curve]"
17,CC1(C)Cc2ccccc2/C(=C/C(=O)N2CCCCCC2)N1,"inconclusive [inhibitor, single point]"
18,Cc1ccc(NC(=O)C2CC(O)CN2C(=O)Oc2ccccc2)c(C)c1 (centres undefined),inactive
19,Cc1c(C(=O)N2CCCCCC2)c(S(=O)(=O)NCc2ccccc2Cl)c(C)n1C,"inconclusive [inhibitor, single point]"
20,Cc1ccccc1NC(=O)COC(=O)c1cc(S(=O)(=O)N2CCOCC2)ccc1C,"inconclusive [inhibitor, single point]"
21,O=C(NC1CCCCC1)N1CCc2ccccc21,inactive
22,O=C(N/N=C/c1c(O)ccc2ccccc12)c1ccc(Br)o1,"inconclusive [inhibitor, full curve]"
23,CCC(NC(=O)CNC(=O)c1ccc2c(c1)OCO2)c1ccc(Br)cc1 (centres undefined),"inconclusive [inhibitor, single point]"
